Laboratory results taken from the supplement of paper PMC11417369.
± gives the standard deviation of the averaged measurements. Some of the results follow.

tested on: PfAP2-I AP2 domain 3 (GST-tagged); assay: gcPBM binding intensity (ln(normalized median fluorescence intensity)); higher = stronger DNA binding
In short: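 Each value is the highest Masliner-normalised natural-log median intensity across replicate spots of either orientation of a probe. The probes were primer-extended double-stranded 36-bp intergenic genomic sequences on an Agilent 4 × 180k array, alongside negative controls, exposed for 1 h to GST-tagged P. falciparum DNA-binding domains expressed in E. coli. Bound protein was picked up with Alexa488 anti-GST antibody and scanned at 488 nm.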

In order of falling “gcPBM binding intensity (ln)” value:
1. ATGTAGAAGTAATGCACACATATGTATTTATATATA [CACACA_site5391]  10.9 ± 0.68
2. ATATATATATATATTGCACACACAATTATTATTATT [CACACA_site8721]  10.4 ± 0.13
3. CCTTATAAATACTGCACACATAAAATATATATTATC [CACACA_site2806]  10.4 ± 0.46
4. TTTTATCGTTTTTTTTTTTTTTTTTTTTTTTTTTTT [CACACA_negctrl_site1309]  9.95 ± 0.29
5. AAATTATTTCAAATGTTGCACTAAAAATAAAATTAT [GTGCAC_site9460]  9.79 ± 0.24
6. TGAAGAATATTTTTCACACATATATATATATATATA [CACACA_site6080]  9.59 ± 0.41
7. ATATATATATATAAATGTACAGGCTTATCTCTTATT [XGTACX_site1828]  9.33 ± 0.28
8. GTGTTCTTGTTATACACACACATATATATATATATA [CACACA_site1032]  9.31 ± 0.18
9. ATATATATATATATATGTACATATTTTTGTTTGATG [XGTACX_site51]  9.24 ± 0.071
10. TGAATATATAAATATGCACACTTCTATTATAAATAA [CACACA_site5796]  8.88 ± 0.092
11. TATATATATAAAAAAGCACACATACATACATACATA [CACACA_site8196]  8.81 ± 0.46
12. TACATTCTAATAATTGCACACTGGTTATTAAAAGGA [CACACA_site1614]  8.81 ± 0.071
13. AAGAAAATATAAAATGCACACTATAAATTGTATATA [CACACA_site7928]  8.73 ± 0.014
14. TAACATATAAGTGTGTGTACGTACTGCGTATAATAT [XGTACX_site8597]  8.53 ± 0.28
15. AAAAAAAAGAAAAAAAAAAAAAAAAAAAAAAAAAAA [CACACA_negctrl_site489]  8.35 ± 0.95
16. TATATTTATAGACACACACACAAAAAAAAAAAAAAA [CACACA_site6818]  8.23 ± 0.73
17. TATATATATAATTAAGCATGCTAGAAACCTTTGAAA [TGCATGCA_site489]  8.23 ± 0.67
18. TTTTATCAATAAATTCGTACACATGAACTAGAGAGT [XGTACX_site5758]  8.21 ± 0.38
19. TACAATCTAAAATACACACGCACACCGAAAAAAAAA [CACACA_site3520]  8.13 ± 0.37
20. TTTTAACATATAAGTACACACATATAATCAATCATA [CACACA_site2325]  8.1 ± 0.12
21. TGTTGTTCCAATTTTTGTACATAAAACATATATATA [XGTACX_site5719]  8.07 ± 0.54
22. ATACAAATTTATATTTCACACATTATTATATACTTA [CACACA_site6034]  8.04 ± 0.44
23. TCTGAAAATTAGAAAAGTACAAAATGGTATAGGAAA [XGTACX_site4396]  8.04 ± 0.57
24. TTTGTTCATATGAAATGTACAAAAAAAAAAAAAAAA [XGTACX_site8849]  8.03 ± 0.7
25. TCCTTAAAATATGGTTGTACGTACATCCTAGGTGTT [XGTACX_site7068]  7.98 ± 0.34
26. GACAAACAATATGAATGTACATAAAAATATAACTAA [XGTACX_site1167]  7.96 ± 0.56
27. ATATAATATTTATATGTACACACCTTAATCCTTAAA [CACACA_site3555]  7.95 ± 0.41
28. TGTATTATATATGTGTGTACATATTTTTTTTTTTTT [XGTACX_site3351]  7.91 ± 0.25
29. GAGAAAAGGAAATAACGTACACATATGCATATCCAA [XGTACX_site5858]  7.88 ± 0.64
30. AAAAAAAAAAAAAATTGTACATTAAATTAAAAGAAA [XGTACX_site8708]  7.88 ± 0.28
31. ATTAGTATATTTCTCTGTACTTACATTAAAATATAA [XGTACX_site2217]  7.85 ± 0.38
32. TATTTATTGTGACACTTTTATTATTTTATGATAAAA [CACACA_negctrl_site37]  7.83 ± 0.33
33. CGCACACGCAGACACACACACACATATAAATAAATA [CACACA_site7101]  7.79 ± 0.31
34. TGAAAGAAGCATAAATGTACACACATATTTATATAT [XGTACX_site2645]  7.76 ± 0.45
35. GTAATATTTTATAGTAGTACATATTTTTATTATTTT [XGTACX_site3333]  7.75 ± 0.2
36. AAAAAAATTAATATGTCAGCACATATATACATACAT [GTGCAC_negctrl_site110]  7.73 ± 0.47
37. TTGTTCTTATTTCATTTTTATATGATATTTCATTAT [CACACA_negctrl_site1619]  7.72 ± 0.41
38. AAAAAAAAAAATACTTGTACTTATATAATATATTAT [XGTACX_site8333]  7.65 ± 0.18
39. ATAAACGTTTTTGAAAGTACATATCATTCATTTGAT [XGTACX_site200]  7.62 ± 0.67
40. AATATTTATTTAATTTCACACAGGTCTTTTTTTTTT [CACACA_site5188]  7.57 ± 0.63
41. CAGATATTCATATAAACACACATACAAATTATGTAT [CACACA_site4258]  7.52 ± 0.45
42. AATTTAATATTCATCTCTAAAGCTATAACAATTACT [CACACA_negctrl_site1079]  7.5 ± 0.61
43. GAGAGGTCAGTTCACAGTACCCAGAAACTCTACGAG [XGTACX_site2559]  7.48 ± 0.51
44. TTTTTATTTATATTTCATTGAAGTTAAATTATTTTA [XGTACX_negctrl_site575]  7.29 ± 0.62
